In PubChem BioAssay (Tox21):
Where “and” joins values, the source holds several entries; their conditions need not be identical. Equal entries are not always repeated. Inconclusive results, whose numbers are uncertain, are shown with a selection of clear calls. Where the call is inconclusive, the potency comes from a doubtful curve fit. Calls of active or inactive are those of the source. Calls come from the whole dose curve; as a rule, active = well fitted curve in the direction sought with a large enough effect in the repeat runs; inconclusive = weak or mixed curves; inactive = no such curve, though single readings can be large; an effect the other way counts as inactive or inconclusive.

Assay: qHTS RealTime-Glo MT Cell Viability Assay in HEK293 cells - 16 hour (AID 1224872); note: nearly all actives have a fitted effect of over 50% in size; for activity change, negative = cytotoxicity: top concentration of the series differs between compounds; % is set by controls: 0 for no effect and ±100 for the full control effect
Settings: RealTime-Glo luminescence; series mostly up to 76.8 µM
Method in brief: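 Reads taken at 0, 8, 16, 24, 32 and 40 h from the same wells. HEK293 cells (600/well) carried RealTime-Glo reagents from seeding, with compound added after a 5 h settle at 37 C.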
Potency is the fitted concentration of half-maximal effect; tags give direction and shape of the fitted curve.

SMILES	Potency	activity change, negative = cytotoxicity
CC(=O)Oc1c(C)c(C)c2c(c1C)CC[C@@](C)(CCC[C@H](C)CCC[C@H](C)CCCC(C)C)O2	inactive	
COC(=O)Nc1nc2ccc(Sc3ccccc3)cc2[nH]1	active: 1.38 µM and active: 1.9 µM	
CCOCCOCCOC(C)=O	inactive	
CC(C)OC(=O)c1cc2c(OCC(O)CNC(C)(C)C)cccc2[nH]1 (stereo not drawn)	active: 4.77 µM	
O=CO		inactive: 2.46% [at 6.97 µM]
C[C@]12CC[C@@H]3c4ccc(O)cc4CC[C@H]3[C@@H]1CC[C@@H]2O	inconclusive: 21.8 µM [cytotoxic, partial curve] and inconclusive: 24.5 µM [cytotoxic, full curve]	
CC1=CC[C@@H]2C[C@H]1C2(C)C		inactive: 8.54% [at 15.8 µM]
O=C1CCCC(=O)C1	inactive	
CC(C)C[P+](C)(CC(C)C)CC(C)C	inactive	
CCCCCCCCCCCC[N+](C)(C)CCCS(=O)(=O)[O-]	inactive	
CC1=C2[C@@H]([C@H](C)CC[C@H]2/C=C(\C)C(=O)O)[C@H](O)C1	inactive	
NC(=O)N(O)[C@@H]1C=C[C@H](Oc2cccc(Oc3ccc(F)cc3)c2)C1	inconclusive: 15.5 µM [cytotoxic, full curve]	
CCCCCCCCCCCCCCCCCC(=O)OCC(CC)CCCC (stereo not drawn)	inactive	

Assay: qHTS RealTime-Glo MT Cell Viability Assay in HepG2 cells - 8 hour (AID 1224873); note: nearly all actives have a fitted effect of over 55% in size
Settings: RealTime-Glo luminescence; series mostly up to 76.8 µM
Method in brief: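 Real-time viability: cells seeded at 600 per well together with NanoLuc and cell-permeant prosubstrate, compounds added after 5 h incubation. Luminescence tracked at 0, 8, 16, 24, 32 and 40 h of exposure.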

SMILES	Potency
Cl[Si](Cl)(c1ccccc1)c1ccccc1	inactive
O=[N+]([O-])c1c(Cl)cc(Cl)cc1Cl	inactive
NC(=O)N(O)[C@@H]1C=C[C@H](Oc2cccc(Oc3ccc(F)cc3)c2)C1	inconclusive: 43.6 µM [falling, partial curve, poor fit]

Assay: qHTS RealTime-Glo MT Cell Viability Assay in HEK293 cells - 40 hour (AID 1224874); note: nearly all actives have a fitted effect of over 50% in size; for max response: % is set by controls: 0 for no effect and ±100 for the full control effect
Settings: RealTime-Glo luminescence; max response: hits give low values
Method in brief: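 Cells were seeded together with NanoLuc luciferase and a prosubstrate that viable cells reduce to a luciferase substrate. After a 5 h incubation at 37 C/5% CO2, compounds were added and luminescence was measured repeatedly during 40 h of treatment.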

SMILES	Potency	max response
O=C1C(=O)c2ccccc2C(O)=C1C1CCC(c2ccc(Cl)cc2)CC1 (stereo not drawn)	inconclusive: 30.1 µM [cytotoxic, single point]	
CC(C=O)Cc1ccc(C(C)C)cc1 (stereo not drawn)		inactive: 18.5%
CC(C)OC(=O)c1cc2c(OCC(O)CNC(C)(C)C)cccc2[nH]1 (stereo not drawn)	active: 9.52 µM	
O=CO		inactive: -0.6%
CSSc1ccoc1C		inactive: 0.757%
CC(=O)Oc1ccc(C(C)=O)cc1		inactive: -8%
NC(=O)N(O)[C@@H]1C=C[C@H](Oc2cccc(Oc3ccc(F)cc3)c2)C1	active: 19.5 µM	

Assay: A CellTox Green Cytotoxicity Assay to monitor cytotoxicity in HEK293 cells - 24 hour (AID 1224875); note: nearly all actives have a fitted effect of over 45% in size
Settings: CellTox Green fluorescence; series mostly up to 76.8 µM
Method in brief: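 Nonlytic real-time cytotoxicity: HEK293 + CellTox Green reagent plated, 5 h preincubation, pintool compound addition (23 nL in DMSO), 37 C for 40 h, fluorescence measured at successive time points.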

SMILES	Potency
O=C(O)CN(CCN(CC(=O)O)CC(=O)O)CC(=O)O	inconclusive: 1.96 µM [activator, single point]
Cl[Si](Cl)(c1ccccc1)c1ccccc1	inconclusive: 22.4 µM [activator, single point]
CC(C)OC(=O)c1cc2c(OCC(O)CNC(C)(C)C)cccc2[nH]1 (stereo not drawn)	inconclusive: 26.8 µM [activator, single point]
O=CO	inconclusive: 0.358 µM [activator, partial curve, poor fit]
CCCC(O)C(CC)CO (stereo not drawn)	inconclusive: 2.75 µM [activator, partial curve]
CCCc1c2oc(C(=O)O)cc(=O)c2cc2c(=O)cc(C(=O)O)n(CC)c12	inconclusive: 26.8 µM [activator, single point]
COc1cc(C(=O)OCCCN2CCCN(CCCOC(=O)c3cc(OC)c(OC)c(OC)c3)CC2)cc(OC)c1OC	inconclusive: 13.4 µM [activator, partial curve, poor fit]
O=[N+]([O-])c1c(Cl)cc(Cl)cc1Cl	inconclusive: 61 µM [activator, single point]
CC(C)C[P+](C)(CC(C)C)CC(C)C	inconclusive: 62 µM [activator, single point]
COc1ccc(NC(=O)CC(C)=O)cc1	inconclusive: 54.9 µM [activator, single point]
CCCCCCCCCCCC[N+](C)(C)CCCS(=O)(=O)[O-]	inconclusive: 55.6 µM [activator, single point]
NC(=O)N(O)[C@@H]1C=C[C@H](Oc2cccc(Oc3ccc(F)cc3)c2)C1	inconclusive: 38.9 µM [activator, single point]

Assay: A CellTox Green Cytotoxicity Assay to monitor cytotoxicity in HepG2 cells - 16 hour (AID 1224876); note: nearly all actives have a fitted effect of over 45% in size
Settings: CellTox Green fluorescence; series mostly up to 76.8 µM
Method in brief: (§1)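 Read-out is fluorescence of a cyanine dye excluded from live cells that stains DNA of dead HepG2 cells, with signal proportional to cytotoxicity. Plates were read at 0, 8, 16, 24, 32 and 40 h after compound addition.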

SMILES	Potency
CC(=O)CCC1=C(C)CCCC1(C)C	inconclusive: 21.9 µM [activator, single point]
COC(=O)Nc1nc2ccc(Sc3ccccc3)cc2[nH]1	inactive
CC(C)OC(=O)c1cc2c(OCC(O)CNC(C)(C)C)cccc2[nH]1 (stereo not drawn)	inactive
CCOc1ccc(OCC)c(Cl)c1	inactive
CC(C)C[P+](C)(CC(C)C)CC(C)C	inactive
NC(=O)N(O)[C@@H]1C=C[C@H](Oc2cccc(Oc3ccc(F)cc3)c2)C1	inconclusive: 49 µM [activator, partial curve]
Cc1c(N)c(=O)n(-c2ccccc2)n1C	inconclusive: 10.7 µM [activator, single point]

Assay: A CellTox Green Cytotoxicity Assay to monitor cytotoxicity in HepG2 cells - 24 hour (AID 1224878); note: nearly all actives have a fitted effect of over 45% in size; for cytotoxicity: % is set by controls: 0 for no effect and ±100 for the full control effect
Settings: CellTox Green fluorescence; series mostly up to 76.8 µM
Method in brief: as §1

SMILES	Potency
O=C1CCCCCCCCCCOCCCCO1	inactive
CC(=O)CCC1=C(C)CCCC1(C)C	inconclusive: 21.9 µM [activator, single point]
CC(C)CC(C)CC(O)CC(C)C (stereo not drawn)	inconclusive: 24.5 µM [activator, single point]
O=C(O)CCC(=O)c1ccc(-c2ccccc2)cc1	inactive
COc1cc(C(=O)OCCCN2CCCN(CCCOC(=O)c3cc(OC)c(OC)c(OC)c3)CC2)cc(OC)c1OC	inconclusive: 19 µM [activator, partial curve, poor fit]
Cc1c(N)c(=O)n(-c2ccccc2)n1C	inconclusive: 10.7 µM [activator, single point]
